PubChem BioAssay (NCATS)
“And” between values parts separate entries of the source, which are not always exact repeats. Equal values may be shown once. The shares of active, inactive and inconclusive entries below differ from those in the screen. Where the call is inconclusive, the potency comes from a doubtful curve fit. The source made the active and inactive calls. Calls follow the shape of the dose curve; as a rule, active = well fitted inhibition curve with a large enough effect; inconclusive = small, poorly fitted or top-dose-only effect; inactive = flat fitted curve, though single readings scatter.

System: Zika virus NS2B-NS3 protease
Assay: Primary screen GU AMC qHTS for Zika virus inhibitors (AID 1347154); also: nearly all actives have a fitted effect of over 70% in size;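 as to activity change, negative = inhibition: 0% = no-inhibitor control and -100% = no-enzyme control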
Conditions: Zika NS2B-NS3 unlinked protease, AMC fluorogenic substrate; series mostly up to 54.1 µM; activity change, negative = inhibition: at the top concentration
How it was run: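 Unlinked Zika NS2B hydrophilic domain/NS3 protease domain noncovalent complex (25 nM final) in 10 mM Tris-HCl pH 8.0, 0.01% Tween 20, with AMC peptide substrate. Fluorescence (ex 340, em 450 nm) change over 15 min, room temperature; percent inhibition fitted to 4-parameter Hill equation.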
Potency is read from the fitted curve at half-maximal effect; tags tell the direction and shape of the fitted curve.

Compound	Potency	activity change, negative = inhibition
Cc1ccccc1C(=O)c1ccc(Nc2ccc(Br)cc2N)cc1Cl	inconclusive: 15.2 µM [inhibitor, partial curve, poor fit]	–
CC(C)(Sc1ccc(CCN(CCCCC2CCCCC2)C(=O)NC2CCCCC2)cc1)C(=O)O	inconclusive: 2.99 µM [inhibitor, full curve] and inconclusive: 2.71 µM [inhibitor, full curve]	–
O=C(Nc1cccc2c(=O)cc(-c3nn[nH]n3)oc12)c1ccc(OCCCCc2ccccc2)cc1	active: 8.91 µM	–
COc1cc2nc(N(C)CCCNC(=O)C3CCCO3)nc(N)c2cc1OC (stereo not given)	active: 8.09 µM and active: 21.5 µM	–
C[C@H](c1ccc(F)cc1CCCC(=O)O)N(c1cc(F)ccc1F)S(=O)(=O)c1ccc(Cl)cc1	inconclusive: 21.5 µM [inhibitor, partial curve]	–
COc1cc2nc(N3CCN(C(=O)C4COc5ccccc5O4)CC3)nc(N)c2cc1OC (stereo not given)	active: 9.07 µM and active: 24.1 µM	–
NC(=NCc1ccccc1)NC(=O)c1nc(Cl)c(N)nc1N	inconclusive: 3.55 µM [inhibitor, partial curve]	–
CCCCCN(CCC12CC3CC(CC(C3)C1)C2)C(=O)NCCCc1ccncc1	inconclusive: 21.5 µM [inhibitor, single point]	–
COc1cc(N2CCN(C)CC2)ccc1Nc1nc(N)c(C(=O)c2c(Cl)cccc2Cl)s1	–	inactive: 1.09%
CC(C=CC(=O)NO)=C[C@@H](C)C(=O)c1ccc(N(C)C)cc1	inconclusive: 27.1 µM [inhibitor, single point]	–
